Test results as given in PubChem BioAssay AID445 (National Center for Advancing Translational Sciences (NCATS), 2006).
Among all 110,000 compounds or so, about 40 (0.04%) were called active. The inconclusive results got no clear call from the source; some entries with a clear call stand among them for comparison. Calls follow the shape of the dose curve; as a rule, active = well fitted curve in the direction sought with a large enough effect in the signal ratio (not every such curve was filed as active); inconclusive = small, poorly fitted or top-dose-only effect, or a change in a side signal; inactive = flat fitted curve, though single readings scatter; the % refers to the signal ratio. Where the call is inconclusive, the potency comes from a doubtful curve fit.

Assay: IkB Signaling;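 as to IkBa stabilization activation: 0% = basal untreated cells and 100% = reference inhibitor full response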
Conditions: ABC-DLBCL IkBa-CBG/CBR dual luciferase ratio (green luciferase fused to IkBa over red control in OCI-Ly3 lymphoma cells), 4 h; IkBa stabilization activation: at 57.1 µM (top of the series), scaled: untreated 0%, proteasome inhibitor 100% unless noted
How it was run: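 In this assay, an IκBα–CBG68 fusion accumulates when IKK-driven degradation is blocked; native CBR normalizes for cell number. OCI-Ly3 cells were treated 4 h with compound and doxycycline, then green and red light read after Chroma-Glo addition.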
Potency is read from the fitted curve at half-maximal effect.

Structure (SMILES)	IkBa stabilization activation	Potency
CCN(C(=O)Cn1nc(Cc2cccnc2)c2ccccc2c1=O)c1cc(C)ccc1C	inconclusive: -0.0471% [signal inhibitor]	
Cc1ccc(-c2cn3c4c(=O)n(C)c(=O)n(C)c4nc3n2-c2cccc(Cl)c2)cc1	inactive: -1.01%	
CSc1ccccc1NC(=O)CCS(=O)(=O)c1nc(-c2cccs2)cc(C(F)(F)F)n1		inconclusive: 6.31 µM [signal inhibitor, single point]
CCn1c(C(=O)Nc2cc(C)cc(C)c2)cc2sc(Cl)cc21	inconclusive: 1.26% [signal inhibitor]	
CCOC(=O)c1cccc(NC(=O)C2CCN(c3nnc(C)c4c(C)n(-c5ccccc5)nc34)CC2)c1	inconclusive: -2.62% [signal inhibitor]	
COc1ccc(-c2ccc(-c3nnc(-c4cc(OC)ccc4OC)o3)cc2)cc1	inactive: -2.41%	
COC(=O)c1sc(NC(=O)COc2ccccc2)nc1C		inconclusive: 25.1 µM [signal inhibitor, partial curve]
CCOc1cc(CNC(=O)C(NS(=O)(=O)c2cccs2)C(C)C)cc(OCC)c1OCC (centres undefined)	inactive: 0.879%	
COc1ccc(NCc2cccn2-c2nnc(N3CCOCC3)s2)c(OC)c1	inconclusive: 0.0704% [signal inhibitor]	
O=C(NNc1ncnc2c1cnn2-c1ccccc1)c1ccccc1	inconclusive: 1.52% [signal inhibitor]	
COc1ccc(C(=O)Nc2ccc3nc(N4CCCCC4)cc(C)c3c2)c(OC)c1		inconclusive: 31.6 µM [signal inhibitor, single point]
Cc1cn2c(=O)cc(COc3cccc(NC(=O)c4cccc(F)c4)c3)nc2s1		inconclusive: 3.16 µM [signal inhibitor]
CCCc1oc2ccc(NS(=O)(=O)c3ccc(OC)cc3)cc2c1C(=O)OCC	inconclusive: -4.38% [signal inhibitor]	
CCOC(=O)c1c(NC(C)=O)c2c3c(sc2n1Cc1cccc(Cl)c1)CCCC3	inconclusive: 1.03% [signal inhibitor]	
CN(Cc1ccco1)c1nc(-c2ccccc2C(F)(F)F)nc2ccccc12	inactive: 4.8% [at 11.4 µM, scaled: untreated 0%, proteasome inhibitor 100%]	
CCCN(C(=O)CCn1cnc2onc(-c3ccc(F)cc3)c2c1=O)c1ccccc1C	inconclusive: -0.877% [signal inhibitor]	
Cc1nc(SCC(=O)N2CCN(c3ccccc3)CC2)c2oc3ccccc3c2n1	inactive: -0.467%	
CCOC(=O)c1c(-c2ccccc2)csc1NC(=O)c1cc(-c2cccc(OC)c2)on1	inactive: 1.33%	
Cc1ccc(Cl)cc1N1CCN(C(=O)Cn2nc(C)n3c(cc4sccc43)c2=O)CC1	inconclusive: 2.26% [signal inhibitor]	
Cc1cc(C)cc(C(=O)Nc2c3c(nn2-c2ccccc2C)CS(=O)(=O)C3)c1	inconclusive: -0.82% [signal inhibitor]	
CC1(CCc2ccccc2)NC(=O)N(Cc2nnc(-c3ccccc3Br)o2)C1=O (centres undefined)	inconclusive: 4.47% [signal inhibitor]	
CCOC(=O)c1nnn(-c2nonc2N)c1CN(C)Cc1ccccc1	inactive: 0.117%	
CCC(=O)N1c2nc(C(C)C)nn2C2(CCCCC2)[C@@H]2CCCC[C@@H]21	inconclusive: 0.154% [signal inhibitor]	

Structure (SMILES)	IkBa stabilization activation	Potency
COc1ccc(Cl)cc1NC(=O)C(C)n1nnc2sc3c(c2c1=O)CCCC3 (centres undefined)	inconclusive: 4.06% [signal inhibitor]	
COc1ccccc1C(=O)Nc1cc(-c2cccc(Br)c2)nn1-c1ccccc1	inconclusive: 0.432% [signal inhibitor]	
COc1ccc2c(C)c(CC(=O)NCCc3ccccc3)c(=O)oc2c1OC	inactive: -0.682%	
COc1ccccc1N1CCN(C(c2cc3ccc(C)cc3[nH]c2=O)c2nnnn2C2CCCC2)CC1 (centres undefined)	inconclusive: 2.15% [signal inhibitor]	
COc1ccccc1NC(=O)CN1CCC(n2c(C)nc3cc(F)ccc32)CC1	inactive: 2.05%	
CCCCn1c(Oc2cccc(C(=O)OC)c2)nc2c1c(=O)n(C)c(=O)n2C	inactive: -1.78%	
COc1ccc(C(=O)NC2(C(F)(F)F)C(=O)NC(C)=C2C#N)cc1 (centres undefined)	inactive: -0.648%	
COc1ccccc1-c1ccc2ncnc(NCCN3CCOCC3)c2c1	inactive: -0.674% [at 11.4 µM, scaled: untreated 0%, proteasome inhibitor 100%]	
CCc1cccc(NC(=O)Cn2nc(CC)n3c(cc4cc(C)ccc43)c2=O)c1	inactive: 6.39%	
CCCCSCc1nc2nc(Cl)c(Cl)nc2[nH]1		inconclusive: 3.98 µM [signal inhibitor, partial curve]
COc1cc(Br)cc(CN2CCN(C/C=C/c3ccccc3)CC2)c1O	inconclusive: 6.61% [signal inhibitor]	
CCC(Oc1ccc(F)cc1)C(=O)Nc1cc(-c2ccc(C)cc2)no1 (centres undefined)	inconclusive: -0.152% [signal inhibitor]	
Cc1cc(C)c2nc(C(F)(F)F)nc(N3CC(C)OC(C)C3)c2c1 (centres undefined)	inactive: 3.13%	
COc1cccc(CNC(=O)Nc2cc(C(=O)NCc3cccc(F)c3)ccc2N2CCCC2)c1	inconclusive: 1.36% [signal inhibitor]	
Cc1ccc(N[C@H](c2ccccc2)c2ccc3cccnc3c2O)cc1	inconclusive: 16.7% [at 11.4 µM, scaled: untreated 0%, proteasome inhibitor 100%]	
C=CCn1cnc2c(c1=O)c1nc3ccccc3nc1n2-c1ccccc1	inactive: 0.772%	
Cc1cccc2cc(CN(Cc3ccco3)C(=O)NC3CCCCC3)c(=O)[nH]c12	inconclusive: 2.2% [signal inhibitor]	
CCN(CC)c1ccc(NC(=O)c2cc(CN3CCCC3)on2)c(C)c1	inconclusive: -4.3% [signal inhibitor]	
CCOc1cc(CNC(=O)c2ccc(NC(=O)c3nsc4ccccc34)cc2)ccc1OC		inconclusive: 10 µM [signal inhibitor, partial curve]
COc1ccccc1N1CCN(C(=O)COc2ccc(Cl)cc2)CC1	inactive: 4.22%	
Cn1c(=O)c2ccccc2n2c(CCC(=O)N3CCN(c4cccc(Cl)c4)CC3)nnc12	inconclusive: -0.0494% [signal inhibitor]	
CCOc1ccc(NC(=O)CC2C(=O)N(c3cccc(OC)c3)C(=O)N2C2CCCCC2)cc1 (centres undefined)	inconclusive: 2.88% [signal inhibitor]	
Cc1[nH]n2c(=O)cc(C(C)C)nc2c1-c1ccccc1	inactive: -3.91%	

Structure (SMILES)	IkBa stabilization activation	Potency
CN(Cc1ccccc1)c1nc2c(c(=O)[nH]c(=O)n2C)n1CCCSc1ncccn1	inactive: -2.29%	
COC(=O)c1c(-c2cccs2)csc1NC(=O)c1cc(OC)cc(OC)c1	inconclusive: 2.77% [signal inhibitor]	
CC(=O)NC(Cc1c[nH]c2ccccc12)C(=O)OCC(=O)Nc1cc(C)on1 (centres undefined)	inactive: -0.794%	
Clc1cccc(-n2ncc3c(NCCCc4ccccc4)ncnc32)c1	inconclusive: -0.646% [signal inhibitor]	
Cc1ccc(C(=O)Nc2nc3ccccc3c(=O)s2)cc1		inconclusive: 3.16 µM [rising, full curve]
Cc1cc(S(=O)(=O)Nc2cccc(-c3ccc(N4CCOCC4)nn3)c2)c(C)cc1Cl	inconclusive: 5% [signal inhibitor]	
COc1cc(NC(=O)c2nc3cc(C)c(C)cc3n(C)c2=O)cc(OC)c1OC	inactive: -1.91%	
O=C(O)[C@H]1[C@H](C(=O)O)[C@H](C(=O)O)C[C@@H]1C(=O)O	inactive: -0.0916% [at 11.4 µM, scaled: untreated 0%, proteasome inhibitor 100%]	
Cc1ccc(CCNC(=O)c2sc3ncccc3c2-n2cccc2)cc1	inconclusive: 5.45% [signal inhibitor]	
COc1cccc(NC(=O)CSc2nc(O)c(C/C=C/c3ccccc3)c(=O)[nH]2)c1	inconclusive: 7.48% [signal inhibitor]	
c1ccc(-c2ccc(N3CC[C@@]4(CCCNC4)C3)cc2)cc1		inconclusive: 3.16 µM [signal inhibitor, partial curve]
CCc1cccc(C)c1Nc1c(-c2ccc(N(C)C)cc2)nc2ncccn12	inconclusive: 10.9% [signal inhibitor]	
CC1CCC(NC(=O)C2(C)Cc3ccccc3C(=O)N2Cc2ccccc2Cl)CC1 (centres undefined)	inconclusive: -0.354% [signal inhibitor]	
COc1ccc2c(c1)-c1nc(NC(=O)c3cc(OC)c(OC)c(OC)c3)sc1CC2	inconclusive: 8.66% [signal inhibitor]	
O=c1[nH]c(C2CCCN(S(=O)(=O)c3ccccc3)C2)nc2c1nnn2Cc1ccc(OC(F)(F)F)cc1 (centres undefined)	inconclusive: 0.44% [signal inhibitor]	
O=C(C1CCC(Cn2c(=O)c3sccc3n(Cc3ccc(F)cc3)c2=O)CC1)N1CCOCC1 (centres undefined)	inactive: -0.125%	
CN1C(=O)c2[nH]nc(-c3ccc(F)cc3)c2C1c1cccc(O)c1 (centres undefined)	inconclusive: 0.829% [signal inhibitor]	
CC(C)CCn1c(SCc2cccc(F)c2)nc2ccsc2c1=O	inactive: -1.66%	
O=C(O)c1cccc(SSc2cccc(C(=O)O)c2)c1	inactive: 2.38% [at 11.4 µM, scaled: untreated 0%, proteasome inhibitor 100%]	
Cc1ccc2oc(=O)n(CCOc3ccccc3Cl)c2c1	inactive: -3.13%	
COc1ccccc1OC[C@H](O)COC(N)=O	inactive: 1.37% [at 25.6 µM, scaled: untreated 0%, proteasome inhibitor 100%]	
CSc1ccccc1NC(=O)Nc1ccccc1	inconclusive: 17.2% [signal inhibitor]	
COc1cc(NC(=O)CN(c2cc(C)cc(C)c2)S(=O)(=O)c2c(C)[nH]c(=O)[nH]c2=O)cc(OC)c1	inconclusive: 3.22% [signal inhibitor]	
